Reference: the supplement of paper PMC11417369
This is one part of the list.

These sequences were tested on PF3D7_0420300 AP2 domain 1 (GST-tagged) (assay: gcPBM binding intensity (ln(normalized median fluorescence intensity)); higher = stronger DNA binding).
Outline: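 GST-tagged P. falciparum DNA-binding domains, expressed in E. coli (about 25 μg on average), were applied for 1 h to an Agilent 4 × 180k array of primer-extended double-stranded 36-bp intergenic genomic probes plus negative controls. The binding buffer was 1× PBS with 1% milk, 0.2 mg/ml BSA, 0.5% salmon testes DNA and 0.03% Triton X-100. Bound protein was detected with Alexa488 anti-GST antibody and scanned at 488 nm. Binding intensity is the highest Masliner-normalised natural-log median intensity across replicate spots of either probe orientation.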

Sequence | gcPBM binding intensity (ln)
TAATACAGATTAAAAGGTACACTTATTTGGTATTAT [XGTACX_site4966] | 9.28
TTAATATGAATTATTACATGCAACTAAATATATTTA [TGCATGCA_site490] | 9.09
ACAAAATATATAGACACACAAACACAAATATGTTTT [CACACA_site3016] | 9.63
ATTTAAAAAAAAACGGAATTTTTTTTTTTTTTAAAG [XGTACX_negctrl_site91] | 8.83
ACATATATGTATAATACACACACTAATATATAATTG [CACACA_site1966] | 9.71
ATATTCATATATTTACGTACATACATTTATATATTT [XGTACX_site7644] | 9.53
TATATTAATGTTCATAGTACGTATGATTAGGAAAAA [XGTACX_site616] | 9.1
GGAAAGACAGTTCACAGTACCCAGGAAATCTGCGGA [XGTACX_site4933] | 9.25
TTTAGTTTTTATATAGCACACATATTGTGATTATGT [CACACA_site8316] | 9.19
AATTTATAAAAGAAGAGGACACATATAAATATAAAT [XGTACX_site59] | 9.66
TATCTTTATATATAGTGTACACATTAAACAAATCTC [XGTACX_site7381] | 9.18
TATTAATGATAAGAATATTTTATATGATACATGCAT [CACACA_negctrl_site923] | 9.02
AATAATTAACAAAAAAAAAAAAAAAAAAAAAAAAAA [GTGCAC_negctrl_site255] | 8.53
TATAAATAAATATGTACACACATATATACCTTTCAT [CACACA_site7291] | 9.54
TATGTATTATATATTTGTACTCATTCTAATTCCTTC [XGTACX_site7294] | 9.32
TATTATATTTTTATTTGTACGTAAAATTAAGTTATG [XGTACX_site2405] | 9.16
AAAAATATAAACAAACGTACGAAGTGATGATATATT [XGTACX_site2242] | 9.7
GAATTGTATTGGTACTGTACAATTAAATTAAAAAAA [XGTACX_site1891] | 8.79
TGTAGTCTGGAGAAGAGTACATAGTATCTGGTAGCT [XGTACX_site2029] | 9.17
ACATAAAATTATTATACATGCATATTTAATTTTTTC [TGCATGCA_site353] | 9.16
AAAAAAAAAAAACACACACACACACCCATATATAAA [CACACA_site1170] | 10.2
TTTTTTGTTAAGTTGGTGCAAACAATAGTTATTGAC | 8.95

Sequence | gcPBM binding intensity (ln)
GGAGCACCCAGACACACACACACATATATATATATA [CACACA_site336] | 10.1
TATATCTACTACACACGTACACAAAATAAGATACCT [XGTACX_site7886] | 9.64
AATAAAAAAATATGAAATTATGACATATAGCATTTG [TGCATGCA_negctrl_site160] | 9.21
TACATAAATTAAAACACACACACACCCAAAAAAAAA [CACACA_site2261] | 10.1
AAAAAATAAAAAGATACACACATATGTATAATATAC [CACACA_site1496] | 9.63
GTGTATATTATTTTATCACACATGTACATATGTTAA [CACACA_site5473] | 9.4
GTTAAAAGAAAAATATGTACATAAAAAAATTAGAAA [XGTACX_site578] | 9.26
CTCTTGTTTCCATATAGTACGTAATAATATATACAA [XGTACX_site2428] | 9.27
TATATATATATATGATGTACACATTTTATTATTTGT [XGTACX_site1147] | 9.31
TTTTCAATTAAAAAAAAATTATATTTTATTATTACA [CACACA_negctrl_site142] | 8.7
AAGATGGTAAAGAATTGTACGCGCATATATATATTT [XGTACX_site3904] | 9.46
AATTTGATAATATCATGTACATGAAAGAATTCATGA [XGTACX_site8463] | 9.04
ATAATGATATATAGTACACACAAAAATGGAAGTAAA [CACACA_site7541] | 9.88
GGACATTTTTATAAGGTGCACGGTTTTGATATTACT [GTGCAC_site9892] | 9.46
AACCACATACATATAACACACATATACAATATATAT [CACACA_site8607] | 9.65
AAGGGTTGCCTGTGTAGTACATATATATATATATAT [XGTACX_site8555] | 9.33
TGACTATGTATATTTAGTACATAAAATCAATAATAT [XGTACX_site4082] | 9.16
AAATTATATTATTGAACACACGTTTGGTAATGTTTT [CACACA_site5469] | 9.33
TCATTCATAAAAATAACACACAAAAAAAAAAAAAAA [CACACA_site1800] | 9.27
GTAAACAAAATATTTTGTACATATTTTATATTATTT [XGTACX_site7837] | 9.26
AAATATAAGAAAAAGGTGCTTTTTTTTTTTTTTTTT [GTGCAC_site9700] | 9.1
AGGGAAAAAAAAAAAGTGCATTTGTATTAAATGAAT | 9.14
